Measurements: patent publication US20200179510A1, “LOW DENSITY LIPOPROTEIN RECEPTOR RELATED PROTEIN 5 INHIBITION SUPPRESSES TUMOR FORMATION” (YALE UNIVERSITY, priority 2017, published 2020)

How the values were obtained:
[1] = biological target: T1, Recombinant mouse DKK2 (Mus musculus, UniProt Q9QYZ8); assay: ELISA, 5F8 binding to DKK2; settings: DKK2 20 ng/ml coated
T1 construct: purchased R&D
T1 sequence (Q9QYZ8 34-259): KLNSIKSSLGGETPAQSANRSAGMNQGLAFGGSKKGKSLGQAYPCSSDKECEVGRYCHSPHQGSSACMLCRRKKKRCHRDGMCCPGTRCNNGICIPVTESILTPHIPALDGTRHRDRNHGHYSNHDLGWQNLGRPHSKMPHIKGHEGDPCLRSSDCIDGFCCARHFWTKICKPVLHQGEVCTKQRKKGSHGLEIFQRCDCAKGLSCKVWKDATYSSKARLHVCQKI
Procedure: Recombinant mouse DKK2 or DKK1 protein (20 ng/ml, R&D) in a blocking buffer (1% BSA in PBS) was incubated in a 384-well microtiter plate for overnight at 4° C. The plate was washed with PBS twice and incubated with the blocking buffer for one hour at room temperature. The plate was then incubated with the anti-DKK2 5F8 antibody in the blocking buffer for 1 hour at room temperature. After repeatedly washing, the plate was incubated with an HRP-conjugated secondary antibody for 1 hour at room temperature. A chemiluminance substrate (Thermo Fisher 37070) was added to the plate, and the plate was read by an EnVision plate reader.

[2] = tested on: MC38 tumors; assay: MC38 tumor graft in NOD scid gamma (NSG) mice; format: in vivo, mouse; settings: 10 mg/kg every three days from Day 6
Procedure: MC38 or YUMM1.7 melanoma tumor cells (0.5-1×106) were mixed with BD Matrigel (Matrix Growth Factor Reduced) (BD 354230) in 100 μl and inoculated subcutaneously at the right flanks of the backs of female C57/BL mice (8-10 weeks old). Tumor growth was measured by calipers, and size was expressed as one half of the product of perpendicular length by square width in cubic millimeters. For antibody treatment, control IgG3 antibody and anti-DKK2 antibody were diluted in PBS, and 100 μl was injected i.p. at intervals indicated in the Figures. For survival tests, mice are euthanized when the tumor size exceeding 1800 mm3 for MC38 and 1200 mm3 for YUMM1.7.

[3] = tested on: MC38 tumors; assay: MC38 graft in mice receiving LRP5-/- or WT bone marrow; format: in vivo
Procedure: ApcMin/+(C57BL/6J-ApcMin/J) and MX1Cre [B6.Cg-Tg(Mx 1-cre)1Cgn/J] mice were acquired from Jackson Laboratory. Wildtype C57BL/6 mice were purchased from Envigo (Harlan). The LoxP-floxed Lrp5 (Lrp5f/f) and Lrp6 (Lrp6f/f) mice were obtain from Bart Williams (54). The Lrp5f/f and Lrp6f/f mice were backcrossed to C57/BL6 for more than 7 generations before being intercrossed with MX1Cre. LRP5 and LRP6 gene disruption was induced by intraperitoneal injection of the Lrp5fl/flMX1Cre mice with 40 μl poly-I:C (10 mg/mL) every other day for 4 treatments. The mice were used for NK cell isolation three weeks after the poly-I:C treatment. For adoptive bone marrow transfer, bone marrows from the Lrp5fl/flMX1Cre mice were transferred to lethally irradiated C57/BL6 mice (8 weeks old) via retro-orbital injection. After recovery (8 weeks), the mice were treated with poly-I:C and used in experiments three weeks after poly-I:C treatment.
To further test the importance of LRP5 in tumor progression and the anti-tumor effect of DKK2 blockade, an adoptive cell transfer model was employed. Specifically, bone marrows (BMs) from the Lrp5fl/flMx1Cre mice were transferred into lethally irradiated WT C57BL mice. After recovery and Cre expression induction, the mice were grafted with the MC38 cells. The lack of LRP5 in hematopoietic cells led to a significant impediment in the progression of the grafted tumors (FIG. 6C).

[4] = tested on: primary mouse NK cells with MC38 or YUMM1.7 cells; assay: NK and tumor cell co-culture; format: cell-based; settings: 250 nM, 9 hours
Procedure: Primary NK cells were isolated from the spleens as described above and cultured in the presence of 50 ng/ml recombinant murine IL-15 for 24 hours. Meanwhile, tumor cells were plated in the 96 well plate for overnight. NK cells were added into the tumor cells at 7:1 radio in the presence of the IgG3 antibody or anti-DKK2 5F8 for 9 hours at 37° C. For testing the effect of DKK2 in co-culture, isolated NK cells were cultured in the presence of 50 ng/ml recombinant murine IL-15 for 24 hours and then cultured in the presence or absence of DKK2 for another 24 hours before the NK cells were added to pre-seeded MC38 cells at 7:1 (NK:MC38) radio. The numbers of live tumor cells were determined by a Guava flow cytometer (EMDmillipore), whereas the cell apoptosis was assessed by flow cytometry using an Annexin V apoptosis detection kit (eBioscience, 88-8007).

B1: 5F8: Mouse monoclonal antibody to DKK2, raised against a synthetic peptide of human DKK2 (SEQ ID NO: 21); chains SEQ ID NOs: 22, 23 (antibody, V domains shown)
VH: GAELVRPGASVKLSCKASGYSFTNYWMNWVKQRPGQGLEWIGMIHPSDSETRLNQKFKDKATLTVDKSSSTAYMQLSSPTSEDSAVYYCAREGRLGLRSYAMDYWGQGTSVTVSS
VL: PSSLAMSVGQKVTMSCKSSQSLLNSSNQKNYLAWYQQKPGQSPKLLVYFASTRESGVPDRFVGSGSGTDFTLTITSVQAEDLADYFCQQHYITPLTFGAGTKLE
binding to DKK2 protein (ELISA) [1]: bound specifically to DKK2 antigen in a dose-dependent manner; also recorded: binds specifically to DKK2 protein
tumor suppressive effect in immunodeficient NSG mice [2]: failed to show its tumor suppressive effect
tumor progression in mice with hematopoietic LRP5-deficiency ([3]; LRP5-/- bone marrow, 5F8 10 mg/kg i.p. Day 12, 17, 20): no significant effects on the tumor progression
tumor progression in mice that received WT bone marrow ([3]; WT BM, 5F8 10 mg/kg i.p. Day 12, 17, 20): retained its tumor suppressive effect
cytotoxic immune cell activation under hematopoietic LRP5 deficiency ([3]; flow cytometry of tumor infiltrated leukocytes): abrogated 5F8's effects on cytotoxic immune cell activation
granzyme B in NK cells co-cultured with YUMM1.7 cells [4]: gzmb is upregulated in NK cells co-cultured with YUMM1.7 cells
granzyme B expression in NK cells co-cultured with MC38 cells ([4]; NK:tumor 7:1): a marked increase in granzyme B expression
tumor cell viability, NK co-culture with MC38 cells ([4]; NK:tumor 7:1): decreases in tumor cell viability
tumor cell viability in co-cultures (YUMM1.7 or MC38) ([4]; vs IgG): a decrease in tumor cell viability

“Also recorded” adds a separate entry of the source.
